Laboratory results reported in the supplement of paper PMC11417369.
± gives the standard deviation of the averaged measurements. This is one part of the list.

The sequences below were run on PfAP2-LT AP2 domain (GST-tagged) (assay: gcPBM binding intensity (ln(normalized median fluorescence intensity)); higher = stronger DNA binding).
Method in brief: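 Alexa488 anti-GST antibody, scanned at 488 nm, detected GST-tagged P. falciparum DNA-binding domains that had been expressed in E. coli and incubated for 1 h on an Agilent 4 × 180k array. The array carried primer-extended double-stranded 36-bp intergenic genomic probes and negative controls. Binding intensity is the highest Masliner-normalised natural-log median intensity across replicate spots of either orientation of each probe.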

| Sequence | gcPBM binding intensity (ln) |
| --- | --- |
| TTGTTTTTCTTTGAATGTACTTAATGATTTCCAATT [XGTACX_site2499] | 8.72 ± 0.48 |
| AAGTTAATGAAAAAATGTACCCAGAGTATTTTAAAA [XGTACX_site2997] | 8.6 ± 0.48 |
| AAAAAAAAAAAAGATTGTACAGAATACTTTTAAAAT [XGTACX_site3576] | 8.45 ± 0.55 |
| TAAAATAAAACAAACACACACACACGGACACAAAAA [CACACA_site7754] | 10.4 ± 0.34 |
| ATATAAATAAAATATACACACATACTGTTCATTTAA [CACACA_site7880] | 8.88 ± 0.38 |
| TTTTTTTTTTATTTTGCACACTTCTAATTTAGTTCT [CACACA_site5828] | 9.15 ± 0.59 |
| ATCATATATGTTATTACACACGTTATGTTATTATAA [CACACA_site2712] | 9.07 ± 0.29 |
| GTGCATAGATGATATACACACAATATAATAGTATGT [CACACA_site5373] | 9.26 ± 0.33 |
| TTAATTTCAAGTAGAAGTACTTTTATGATTGTGAGG [XGTACX_site1247] | 8.55 ± 0.35 |
| TATAATTTAGCTTGTGCATGCAGGTGCTACATTTGT [TGCATGCA_site217] | 9 ± 0.38 |
| TTGTAAGAAAAACACACACACACATATATATATATA [CACACA_site795] | 10.1 ± 0.014 |
| TTTTCGGATAATAATTGTACGAAACATTTAAAAAAA [XGTACX_site8898] | 8.28 ± 0.49 |
| TATATAATATATATATGTACACATATACATTTTTAT [XGTACX_site2832] | 8.95 ± 0.49 |
| TAAATAGTTATAAAAGTGCAAAAAAAAAAAAAAAAA [GTGCAC_site9550] | 8.47 ± 0.54 |
| ACTCAAAATTATAATTGTACAAATGCTTTGTTTAAT [XGTACX_site3437] | 8.79 ± 0.36 |
| ACATTATATCTAAGTACACACATTAATTTTTTTTTT [CACACA_site7850] | 8.87 ± 0.4 |
| TTTATTTTGATTTAATGTACAAATAGTAAAACAAAA [XGTACX_site4789] | 8.39 ± 0.37 |
| CTATAACCTCTGTTCACACATATATCATAATTTACA [CACACA_site5446] | 8.87 ± 0.36 |
| TATTTAAAAGCATATACACACAACTGGAATGAAAAG [CACACA_site6128] | 9.05 ± 0.42 |

| Sequence | gcPBM binding intensity (ln) |
| --- | --- |
| GTTTCAAAATTAAACACACACAAAAAAAAAAAAAAA [CACACA_site2680] | 8.78 ± 0.52 |
| TATTATATCTTTATTATTCATCTAAAATTTGTATTT [TGCATGCA_negctrl_site233] | 8.59 ± 0.53 |
| TTGATTTACTATAGATGTACGTAAAATATAAATAAA [XGTACX_site8256] | 8.52 ± 0.45 |
| ATAAAAAATAAATATATACATACATACATACATATA [XGTACX_negctrl_site507] | 8.86 ± 0.45 |
| ATAAAACAAAAATATAAACACACATACATTGGTTTT [CACACA_site8809] | 8.93 ± 0.44 |
| TTTTCAAAAATATACACACACATAAATATAGGTATA [CACACA_site6506] | 9.12 ± 0.29 |
| AATTTAAAAGAAAAAGAAAAATAATAAACAGAAGCA [XGTACX_negctrl_site503] | 8.62 ± 0.52 |
| TTATATATATATTATAGTACATATATAATATAGTAA [XGTACX_site6869] | 8.54 ± 0.4 |
| ATATATGAGCAAAAATATATAAGATAACACATAAAT [CACACA_negctrl_site167] | 9.09 ± 0.41 |
| TCTCTATAAATAAATACATGCATATAATAAAGAATT [TGCATGCA_site710] | 8.68 ± 0.35 |
| ATTTTTTTTATTTTTTCAATATATATATATATATAT [CACACA_negctrl_site1444] | 8.9 ± 0.41 |
| TTATATATATATAATACACACATAATAATATATTTA [CACACA_site3038] | 8.68 ± 0.4 |
| GAAATAGAAATAAAATAGGCATACAATAGAACTAAG [TGCATGCA_negctrl_site537] | 9.01 ± 0.56 |
| TATTTTACAAAATAAGGTACGTAAATATATGGTAGG [XGTACX_site2133] | 8.83 ± 0.42 |
| AAATATCTTTTATATTGTACATATTCCTTATGTGGA [XGTACX_site7638] | 8.71 ± 0.42 |
| CCTTATTATTATTTTACACACGTCCTAATAAGAGGA [CACACA_site1319] | 8.88 ± 0.31 |
| TATTTAAAAATATATACACACATTTTATATTATTAT [CACACA_site781] | 8.77 ± 0.47 |
| AAAAACAAAAAAGAAGCACACATATATATATATATA [CACACA_site8779] | 9.89 ± 0.3 |
| AATATATAAATAAATACACACATAAAATAGAAATAT [CACACA_site1663] | 9.23 ± 0.43 |

| Sequence | gcPBM binding intensity (ln) |
| --- | --- |
| TTTATCTGATATATTACACACAAAAAAAAAAAAAAA [CACACA_site7637] | 8.63 ± 0.4 |
| AATATTATATATATGGGTACTAATTCCTTTAATTTC [XGTACX_site102] | 8.59 ± 0.47 |
| TTTTTTTAAACTGAAAGTACTTATTCCAAGAAAATA [XGTACX_site50] | 7.96 ± 0.3 |
| ATATATATATCAACAACACACGATTAACTAAAAAAA [CACACA_site302] | 8.88 ± 0.47 |
| ATAATGACTAAATTTAAACACACAAGGGGAGTTTAC [CACACA_site8209] | 8.79 ± 0.5 |
| CGCACAAAAATATACACACACACATCTATATTTATT [CACACA_site7675] | 9.79 ± 0.42 |
| AAAACAAATGAGTACACACACATAAAAGTTGAAAAT [CACACA_site6238] | 9.65 ± 0.49 |
| TACCCATATTAATATGTGCGCATATAAAAGTCAAAC | 9.09 ± 0.35 |
| TATATATATATATACACACACATATATATATATATA [CACACA_site1346] | 9.685 ± 0.05 |
| GCATAAGAAATAAATAGTACACACATAGACACACAC [XGTACX_site3095] | 9.86 ± 0.45 |
| ATAAGATATGTATATACACACATTTATTTACATATA [CACACA_site3263] | 8.94 ± 0.4 |
| AGTATACATATATATACACACACACCGATATATATA [CACACA_site8357] | 9.74 ± 0.23 |
| TTAATATATTAAATCTTACACACTAAAAAATATGTA [CACACA_site307] | 8.43 ± 0.35 |
| TAAAAAAAATAAACGTGTACATAAAAATGAATATGT [XGTACX_site119] | 8.91 ± 0.4 |
| AACGTTAAAAAAAAAATATATATAAGGAGAAAGCAC [XGTACX_negctrl_site338] | 8.96 ± 0.52 |
| GAAAATATTATAGCACCACACACTTATTTTATATAT [CACACA_site2265] | 9.18 ± 0.33 |
| TATGCGTCTTGCCTTGCACACTTTTATGAAAAAAAA [CACACA_site5174] | 8.79 ± 0.4 |
| TAATTCGCAAAAGAAAGAAATTAAGAAAAAGAAAAA [XGTACX_negctrl_site614] | 8.4 ± 0.64 |
